Paper PMC11306496
These are yes or no findings as the source states them, for the method shown. In cells and extracts the contact can be indirect. Some results given as binding are weak or reduced against the parent protein; the word gives no strength.

Protein sequences, listed by entry. Tags and fused reporters are not part of them. Residues count along the entry.
UniProt P70569: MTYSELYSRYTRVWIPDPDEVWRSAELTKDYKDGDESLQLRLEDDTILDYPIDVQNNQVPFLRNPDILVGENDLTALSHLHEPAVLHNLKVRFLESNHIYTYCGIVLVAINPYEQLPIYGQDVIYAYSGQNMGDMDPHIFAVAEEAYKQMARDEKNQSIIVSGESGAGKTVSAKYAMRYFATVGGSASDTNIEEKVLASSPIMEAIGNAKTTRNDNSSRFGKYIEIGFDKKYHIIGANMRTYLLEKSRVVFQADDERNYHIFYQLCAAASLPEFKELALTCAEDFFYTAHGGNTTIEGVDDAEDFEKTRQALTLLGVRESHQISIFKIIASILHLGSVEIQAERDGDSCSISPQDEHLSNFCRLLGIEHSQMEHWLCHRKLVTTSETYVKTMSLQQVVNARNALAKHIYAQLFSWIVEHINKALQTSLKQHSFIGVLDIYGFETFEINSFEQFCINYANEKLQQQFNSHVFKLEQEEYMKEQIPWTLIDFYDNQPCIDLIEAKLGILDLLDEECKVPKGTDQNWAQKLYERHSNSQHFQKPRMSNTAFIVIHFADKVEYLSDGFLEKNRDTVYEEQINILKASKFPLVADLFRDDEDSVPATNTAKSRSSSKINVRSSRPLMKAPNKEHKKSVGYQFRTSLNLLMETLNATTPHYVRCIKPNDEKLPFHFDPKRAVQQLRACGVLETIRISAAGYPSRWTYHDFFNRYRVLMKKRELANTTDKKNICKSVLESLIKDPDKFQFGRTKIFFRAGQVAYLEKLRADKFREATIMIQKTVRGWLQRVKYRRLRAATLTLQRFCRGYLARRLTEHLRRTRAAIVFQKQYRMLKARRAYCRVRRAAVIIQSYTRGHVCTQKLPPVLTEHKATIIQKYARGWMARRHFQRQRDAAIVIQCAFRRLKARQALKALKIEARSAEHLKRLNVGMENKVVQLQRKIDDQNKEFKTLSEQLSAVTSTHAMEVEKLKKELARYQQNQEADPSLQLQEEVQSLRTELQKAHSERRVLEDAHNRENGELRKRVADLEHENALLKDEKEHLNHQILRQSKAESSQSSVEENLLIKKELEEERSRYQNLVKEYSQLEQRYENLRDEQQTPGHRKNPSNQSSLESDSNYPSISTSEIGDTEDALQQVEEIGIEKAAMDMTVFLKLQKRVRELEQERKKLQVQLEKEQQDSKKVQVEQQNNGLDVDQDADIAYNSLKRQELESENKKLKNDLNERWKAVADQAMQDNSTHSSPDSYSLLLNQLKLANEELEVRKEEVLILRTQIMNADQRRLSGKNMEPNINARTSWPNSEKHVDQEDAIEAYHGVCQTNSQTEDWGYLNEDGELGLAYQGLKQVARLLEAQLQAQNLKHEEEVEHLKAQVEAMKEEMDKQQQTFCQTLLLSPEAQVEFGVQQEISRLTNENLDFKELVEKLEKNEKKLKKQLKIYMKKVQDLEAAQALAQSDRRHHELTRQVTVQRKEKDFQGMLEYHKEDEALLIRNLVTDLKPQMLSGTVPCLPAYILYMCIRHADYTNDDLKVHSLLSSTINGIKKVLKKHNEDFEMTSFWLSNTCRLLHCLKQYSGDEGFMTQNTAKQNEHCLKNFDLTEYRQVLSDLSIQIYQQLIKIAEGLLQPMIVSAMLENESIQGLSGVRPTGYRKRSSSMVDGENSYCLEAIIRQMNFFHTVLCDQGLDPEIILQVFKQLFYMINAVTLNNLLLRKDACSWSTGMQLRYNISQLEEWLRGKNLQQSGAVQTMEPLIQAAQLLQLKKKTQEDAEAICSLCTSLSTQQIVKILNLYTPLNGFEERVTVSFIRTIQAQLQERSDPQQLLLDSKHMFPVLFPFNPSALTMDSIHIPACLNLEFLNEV
GST-MyoVa medial tail (amino acids 1,110-1,440) (Q9QYF3, residues 1110-1440): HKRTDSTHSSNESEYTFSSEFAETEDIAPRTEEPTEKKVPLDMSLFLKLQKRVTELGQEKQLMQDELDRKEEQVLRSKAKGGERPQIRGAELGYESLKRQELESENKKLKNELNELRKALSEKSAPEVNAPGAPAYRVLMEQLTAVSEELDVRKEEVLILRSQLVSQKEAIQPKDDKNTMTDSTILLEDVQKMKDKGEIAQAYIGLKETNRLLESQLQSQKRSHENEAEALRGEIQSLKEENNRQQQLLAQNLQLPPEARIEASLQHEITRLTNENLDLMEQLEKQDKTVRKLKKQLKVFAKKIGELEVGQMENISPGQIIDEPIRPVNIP
UniProt Q00960, residues 27-1482: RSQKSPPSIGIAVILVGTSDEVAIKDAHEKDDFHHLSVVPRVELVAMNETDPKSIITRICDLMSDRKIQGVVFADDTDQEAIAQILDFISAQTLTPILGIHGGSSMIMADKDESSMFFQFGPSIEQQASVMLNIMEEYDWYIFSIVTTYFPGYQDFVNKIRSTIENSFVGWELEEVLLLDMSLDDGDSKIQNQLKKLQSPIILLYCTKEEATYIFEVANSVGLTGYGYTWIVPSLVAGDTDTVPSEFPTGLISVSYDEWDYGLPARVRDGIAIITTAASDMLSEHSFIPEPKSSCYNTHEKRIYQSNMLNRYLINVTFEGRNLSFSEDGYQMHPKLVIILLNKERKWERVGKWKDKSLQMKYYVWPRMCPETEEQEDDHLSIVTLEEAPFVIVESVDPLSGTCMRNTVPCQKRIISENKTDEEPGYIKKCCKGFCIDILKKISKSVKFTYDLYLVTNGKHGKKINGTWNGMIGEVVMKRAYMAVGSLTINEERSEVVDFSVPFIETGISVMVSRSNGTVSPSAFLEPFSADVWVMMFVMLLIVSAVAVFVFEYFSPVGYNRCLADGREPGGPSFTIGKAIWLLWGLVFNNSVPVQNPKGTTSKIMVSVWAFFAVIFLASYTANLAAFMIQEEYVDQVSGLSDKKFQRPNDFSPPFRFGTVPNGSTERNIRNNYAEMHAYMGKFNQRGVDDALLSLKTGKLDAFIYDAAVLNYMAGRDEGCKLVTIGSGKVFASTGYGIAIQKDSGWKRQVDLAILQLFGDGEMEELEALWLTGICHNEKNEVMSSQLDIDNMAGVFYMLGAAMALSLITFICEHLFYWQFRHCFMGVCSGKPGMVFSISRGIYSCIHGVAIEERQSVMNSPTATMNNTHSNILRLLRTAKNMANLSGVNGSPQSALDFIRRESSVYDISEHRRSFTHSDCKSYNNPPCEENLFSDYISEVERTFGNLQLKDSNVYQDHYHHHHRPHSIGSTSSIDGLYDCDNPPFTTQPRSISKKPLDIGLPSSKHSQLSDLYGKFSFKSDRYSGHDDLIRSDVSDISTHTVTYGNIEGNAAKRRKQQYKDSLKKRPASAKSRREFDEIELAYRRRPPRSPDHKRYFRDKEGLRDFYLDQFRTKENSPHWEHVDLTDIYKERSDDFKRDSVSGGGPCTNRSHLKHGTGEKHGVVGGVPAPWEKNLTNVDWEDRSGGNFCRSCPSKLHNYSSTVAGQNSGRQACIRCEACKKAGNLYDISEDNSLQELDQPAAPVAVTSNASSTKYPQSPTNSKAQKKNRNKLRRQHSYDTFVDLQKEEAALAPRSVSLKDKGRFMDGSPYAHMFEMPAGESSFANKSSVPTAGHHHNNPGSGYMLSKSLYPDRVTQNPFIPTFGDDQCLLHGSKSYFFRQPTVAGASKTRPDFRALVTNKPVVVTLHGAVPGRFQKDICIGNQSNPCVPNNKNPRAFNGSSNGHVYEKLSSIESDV

Legend:
[1] = target: myosin Vb (rat (endogenous in hippocampus)) (UniProt P70569); assay: co-IP; total rat hippocampal lysates with primary antibody and Protein A/G agarose, 4°C; buffer pH 7.4, 0.05 mol/L HEPES, 0.15 mol/L NaCl, 0.5% NP-40, 1% Triton X-100; non-immune IgG as control; slices untreated or treated with PMA (0.5 umol/L, 10 min) and/or AIP (1 umol/L)
[2] = target: myosin Va (rat (endogenous in hippocampus)) (UniProt Q9QYF3); assay: as above
[3] = target: NMDA receptor subunit GluN1 (rat (endogenous in hippocampus)) (UniProt P35439); assay: as above
[4] = target: GST-MyoVa globular tail (amino acids 1,430-1,830) (rat) (UniProt Q9QYF3); assay: pull-down; GST-MyoVa globular tail, medial tail or GST alone on glutathione resin mixed with total proteins from hippocampal slices or cultured hippocampal neurons, 4°C overnight; washed with PBS, 0.1% Triton X-100; immunoblot; only the target purified
[5] = target: GST-MyoVa medial tail (amino acids 1,110-1,440) (rat) (UniProt Q9QYF3); assay: as above

| Substance | binding [1] | binding [2] | binding [3] | binding [4] | binding [5] |
| --- | --- | --- | --- | --- | --- |
| NMDA receptor subunit GluN2B (from UniProt Q00960 27-1482) | no binding | binds |  |  |  |
| myosin Vb (from UniProt P70569 1-1846) |  |  | no binding |  |  |
| myosin Va (from UniProt Q9QYF3 1-1828) |  |  | binds |  |  |
| NMDA receptor subunit GluN2A (from UniProt Q00959 23-1464) | no binding | binds |  | binds | no binding |
| NMDA receptor subunit GluN1 (from UniProt P35439 19-938) | no binding | binds |  | binds | no binding |
